From PubChem BioAssay AID686979 (National Center for Advancing Translational Sciences (NCATS), 2013)
About 50,000 (12%) of roughly 420,000 compounds were called active. The shares of active, inactive and inconclusive entries below differ from those in the screen. The call rests on the fitted dose curve; in most records, active means well fitted inhibition curve with a large enough effect; inconclusive means small, poorly fitted or top-dose-only effect; inactive means flat fitted curve, though single readings scatter. Potencies of inconclusive entries are left out as doubtful fits.

Experiment: qHTS for Inhibitors of human tyrosyl-DNA phosphodiesterase 1 (TDP1): qHTS in cells in presence of CPT; further: nearly all actives have a fitted effect of over 55% in size
Conditions: chicken DT40 Tdp1-/-;hTDP1 cells + 20 nM CPT, ATP luminescence, 48 h; activity change, negative = growth inhibition: at 46.2 µM (top of the series) unless noted
Outline: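 Chicken DT40 Tdp1-/- cells complemented with human TDP1, 400 cells/well, exposed to compounds plus 20 nM camptothecin for at least 48 h at 37 C; viability read as ATP content by CellTiter-Glo luminescence.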
On the % scale 0 is the no-effect control and ±100 the full control effect; potency means the concentration at half of the fitted maximal effect; tags describe the fitted curve by direction and shape.

| SMILES | Potency | activity change, negative = growth inhibition |
| --- | --- | --- |
| COc1ccc2[nH]cc(CCNc3ncnc4ccc(-c5ccoc5)cc34)c2c1 | inconclusive [inhibitor, single point] |  |
| CC1(C)Cc2c(ccc3ccccc23)-c2nnc(-c3cccnc3)n21 | inconclusive [inhibitor, single point] |  |
| O=C(COC(=O)COc1ccc(Br)cc1)Nc1cccnc1Cl | inactive |  |
| CCc1ccccc1NC(=O)CNC(=O)CNC(=O)c1cccs1 | inactive |  |
| CCC(CC)COC(=O)C1=C(C)NC(=O)NC1c1ccccc1Br (stereo unspecified) | inconclusive [inhibitor, single point] |  |
| COc1cccc(CN2CCc3nc(Nc4ccc5c(c4)OCCO5)ncc3C2)c1OC | active: 20.6 µM |  |
| Cc1ccccc1NC(=S)NC(=O)c1cc(-c2ccccc2)nc2ccccc12 | inconclusive [inhibitor, single point] |  |
| COc1cc(C(c2c(C)[nH][nH]c2=O)c2c(C)[nH][nH]c2=O)cc([N+](=O)[O-])c1O | inconclusive [inhibitor, single point] |  |
| COC(=O)c1ccc(C2=NOC(C)(c3nnc(Cc4ccccc4)o3)C2)cc1 (stereo unspecified) | inactive |  |
| CCOc1ccc(NC(=O)c2cc(=O)c3cc(CC)ccc3o2)cc1 | inactive |  |
| COC(=O)[C@@]1(Cc2ccc(F)cc2)[C@H]2c3cc(C(=O)N(C)C)n(CCc4ccccn4)c3C[C@H]2CN1C(=O)c1ccccc1 | inconclusive [inhibitor, single point] |  |
| Cc1cc(C(=O)N/N=C/c2ccc(-c3cccc(Br)c3)o2)n[nH]1 | inconclusive [inhibitor, single point] |  |
| CCOC(=O)[C@H]1[C@H]2COc3ccc(Cl)cc3[C@@H]2N2C(=O)c3cc(F)ccc3NC(=O)[C@@]12C | inconclusive [inhibitor, single point] |  |
| Cc1cccc(NC(=O)Cc2coc3ccc4ccccc4c23)n1 | active: 10.3 µM |  |
| COc1ccc(CCNc2oc(COc3ccccc3Cl)nc2C#N)cc1OC | inconclusive [inhibitor, single point] |  |
| Cc1nn(CC(=O)NC(=O)NC2CCCCC2C)c(=O)c(C#N)c1C (stereo unspecified) | inconclusive [inhibitor, single point] |  |
| COc1ccc2[nH]c(=O)c(CN(C(=O)c3cccnc3)c3ccccc3C)cc2c1 | inactive |  |
| [O-]/[N+](=C\c1ccco1)c1ccc(Cl)cc1 | inconclusive [inhibitor, single point] |  |
| COC(=O)N/N=C/c1cccc(OC(=O)c2ccc3c(c2)OCO3)c1 | inactive |  |
| Cc1cccc(N2CCN(CC(O)COc3ccc4ccccc4c3)CC2)c1 (stereo unspecified) | inactive |  |
| Cc1ccc(-c2nn(-c3ccccc3)cc2C=O)o1 | inconclusive [inhibitor, single point] |  |
| COc1ccc(CCC(=O)NCCS(=O)(=O)N2CCN(c3ccccc3)CC2)cc1 | inconclusive [inhibitor, single point] |  |
| CC(C)(C)c1ccc(S(=O)(=O)N2CCN(CC(=O)NC(=O)NC3CCCCC3)CC2)cc1 | inconclusive [inhibitor, single point] |  |

| SMILES | Potency | activity change, negative = growth inhibition |
| --- | --- | --- |
| CCOC(=O)Cn1c(=O)oc2cc(S(=O)(=O)Nc3ccc(F)cc3)ccc21 | inconclusive [inhibitor, full curve] |  |
| CCc1ccccc1N(CC(=O)NC1CCCC1)C(=O)CNC(=O)c1cccs1 | inactive |  |
| COc1cc(NC(=O)Cn2nc(C(F)(F)F)c(Br)c2C)cc([N+](=O)[O-])c1 | active: 14.6 µM |  |
| COc1ccccc1-c1nn2c(-c3cc(C)[nH]n3)nnc2s1 | active: 8.91 µM |  |
| COc1ccc(Br)cc1CN(C)CC(=O)Nc1cc(Cl)cc(Cl)c1 | inconclusive [inhibitor, single point] |  |
| CC(C)(C)OC(=O)C[C@H]1C/C=C\C[C@@H](CC(=O)N(CCO)Cc2ccccc2)C(=O)NCCOC1=O |  | inconclusive: -31.4% [inhibitor] |
| CN(CC(=O)Nc1cccnc1)S(=O)(=O)c1ccc(Br)cc1 | inactive |  |
| COCCn1c(-c2cccs2)csc1=Nc1cccnc1 | inconclusive [inhibitor, single point] |  |
| O=C(Cc1ccccc1)Nc1ccc(Br)c(Cl)c1 | inactive |  |
| S=C1SCN(Cc2cccs2)CN1Cc1cccs1 | inconclusive [inhibitor, single point] |  |
| O=C(NCC1CCCO1)c1cc(C(=O)C2CC2)c[nH]1 (stereo unspecified) | inactive |  |
| COc1cc(NC(=O)c2cccc([N+](=O)[O-])c2)ccc1NC(=O)c1cc2ccccc2o1 | inconclusive [inhibitor, single point] |  |
| CC1(c2ccc(Cl)cc2)NC(=O)N(CC(=O)N2CCN(S(=O)(=O)c3ccccc3)CC2)C1=O (stereo unspecified) | inconclusive [inhibitor, single point] |  |
| O=Cc1ccc(-c2cccc([N+](=O)[O-])c2)o1 | inactive |  |
| C[C@@H]1CN([C@H](C)CO)C(=O)CCCn2nncc2CO[C@@H]1CN(C)S(=O)(=O)c1ccccc1 | inactive |  |
| Cc1oc2c(C)c3oc(=O)c(CCC(=O)N4C[C@H]5C[C@@H](C4)c4cccc(=O)n4C5)c(C)c3cc2c1C | inconclusive [inhibitor, single point] |  |
| COc1cc(C(=O)Nc2cc(-c3cn4cccnc4n3)ccc2C)cc(OC)c1OC | inactive |  |
| Oc1ccc(/C=C/c2nc(-c3ccccc3O)n(-c3ccccc3)n2)c(O)c1 | inactive |  |
| CCOc1ccc(NC(=O)CSc2nc(-c3cccs3)cc(C(F)(F)F)c2C#N)cc1 | inactive |  |
| O=C(/C=C/c1ccc(Cl)c(Cl)c1)NCc1ccco1 | inactive |  |
| CCc1ccc(C2=C(C)C(N3CCC(C(=O)Nc4cccc(OC)c4)CC3)=NS2(=O)=O)cc1 | inconclusive [inhibitor, partial curve] |  |
| CCC(C)Nc1nc(Cl)nc(N(C#N)CN2C(=O)c3ccccc3S2(=O)=O)n1 (stereo unspecified) | active: 14.6 µM |  |
| NNC(=S)Nc1cc(S(=O)(=O)N2CCOCC2)ccc1N1CCOCC1 | inconclusive [inhibitor, partial curve, poor fit] |  |
